# According to ChEMBL document CHEMBL1201862, “PubChem BioAssay data set” (2004):
#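 96-well plates; 48 h exposure; 5 concentrations. Endpoints by linear interpolation between flanking doses. Not reached: highest tested concentration assigned. At the GI50, growth is halved.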 Active and inactive are the calls of the source. Rule as the data show it: active = GI50 up to about 1.1 µM and inactive = higher.
# Test system: NCI-H322M
# Assay: inhibition of tumour cell growth, NCI panel, 48 h
row,SMILES,GI50
1,c1ccc2c3ccn4ccc5c6ccccc6[nH]c5c4c-3nc2c1,active: 1.07 µM
2,CC(=O)OC1COC(N2CCc3cc([N+](=O)[O-])ccc32)C(OC(C)=O)C1OC(C)=O (configuration not stated),inactive: > 100 µM
3,CC(CO)(CO)Nc1ncnc2ccccc12,inactive: > 100 µM
4,COC(=O)C(=O)C(C(=O)C(=O)Nc1ccccc1C(N)=O)c1nc2ccc(C(=O)c3ccccc3)cc2nc1O (configuration not stated),inactive: > 100 µM
5,O=C1CC(c2ccccc2)n2c(nc3ccccc32)N1 (configuration not stated),inactive: > 100 µM
6,COc1ccc2c(c1)-c1nc(=S)n(CCN(C)C)c3ccc([N+](=O)[O-])c(c13)N2,active: 0.807 µM
7,Nc1c(Cl)ncnc1NCCCNc1ncnc(Cl)c1N,inactive: > 100 µM
8,O=C1N/C(=N/N=C/c2ccccc2)N/C1=C\c1c[nH]c2ccccc12,inactive: > 100 µM
9,COC(=O)[C@@H](N1C(=O)c2ccccc2C1=O)C1(C)CC(Cl)=NO1 (some centres not stated),inactive: 60 µM
10,CC(=O)CC(=O)c1cc2c(=O)oc(C)cc2oc1=O,inactive: > 37.5 µM
11,C=C1C(=O)OC2CC(C)C(C(O)CC(C)O)=CCC12 (configuration not stated),inactive: 29.7 µM
12,Fc1ccc(OCc2ccc3nc(-c4ccccc4)c(Cl)nc3c2)cc1,inactive: 70.5 µM
13,Cc1ccc(CC(Cc2ccc(C)cc2C(=O)O)C(=O)O)cc1 (configuration not stated),inactive: > 100 µM
14,O=[N+]([O-])c1nccn1COCCF,inactive: > 100 µM
15,CSc1nn(C)cc2nc(C)nc1-2,inactive: > 100 µM
16,[O-]c1c[n+](CC[n+]2cc([O-])on2)no1,inactive: > 100 µM
17,CC1=CC(=O)/C(=C/NC(=S)Nc2ccc(S(N)(=O)=O)cc2)C(=O)O1,inactive: > 100 µM
18,O=C1OC(c2cccc(C(F)(F)F)c2)c2ccc3ccccc3c21 (configuration not stated),inactive: > 10 µM
19,c1ccc2c(c1)nnn2CNc1ccc(N2CCOCC2)cc1,inactive: > 100 µM
20,Cc1ccc(S(=O)(=O)NC(=O)C2C(=O)CC3(CCCCC3)CC2=O)cc1,inactive: 25.4 µM
21,O=C(c1ccccc1)c1c(CC(O)c2cccnc2)n(C(=O)c2ccccc2)c2ccccc12 (configuration not stated),inactive: 33.7 µM
22,COC(OC)C1OC(CO)C(n2cc(F)c(=O)[nH]c2=O)C1O (configuration not stated),inactive: > 100 µM
23,CC1(C)CC(C)(C)C1=NNC(N)=O,inactive: > 100 µM

row,SMILES,GI50
1,CC(C)/C=N\N1C(N)=C(C#N)C(C#N)(C#N)C1C(C)C (configuration not stated),inactive: > 100 µM
2,CC1(C)C2CC(O)C1CCC2=O (configuration not stated),inactive: > 100 µM
3,COc1cc2c(cc1OC)-c1cc3ccccc3c(=O)n1CCC2,inactive: 9.59 µM
4,CC1=C(C(=O)N[C@@H](Cc2ccccc2)C(=O)O)N2C(=O)[C@@H](NC(=O)[C@@H](N)CC(C)C)[C@H]2SC1,inactive: > 100 µM
5,C[N+](C)(C)c1ncnc2c1ncn2C1CC(O)C(CO)O1 (configuration not stated),inactive: > 100 µM
6,NC(=O)NOCC1NC(=O)NC1=O (configuration not stated),inactive: > 100 µM
7,O=C(OC1C2OC(=O)c3cc(O)c(O)c(O)c3Oc3cc4c(c(O)c3O)-c3c(cc(O)c(O)c3O)C(=O)OCC3OC(O)C(OC(=O)c5cc(O)c(O)c(O)c5Oc5cc6c(c(O)c5O)-c5c(cc(O)c(O)c5O)C(=O)OC1C(COC6=O)OC2O)C(OC(=O)c1cc(O)c(O)c(O)c1)C3OC4=O)c1cc(O)c(O)c(O)c1 (configuration not stated),inactive: 13.1 µM
8,CC(C)C(=O)OCC1CCCN2CCCCC12 (configuration not stated),inactive: > 100 µM
9,C=CCOc1ccccc1C1(O)c2ccccc2C2=NCCCN21 (configuration not stated),inactive: 48.4 µM
10,Cc1c2ccccc2c(C)n2c1nc1cc3ccccc3cc12,inactive: 1.19 µM
11,O=C(O)C1CCc2ccc3ccccc3c2C1c1cccc2ccccc12 (configuration not stated),inactive: 18.2 µM
12,O=C(OCc1ccccc1)N1CCNCCNCC1,inactive: > 100 µM
13,N=C(N)NNC(=O)CCn1[nH]c(=O)c(Cl)c(Cl)c1=O,inactive: > 100 µM
14,CCCCCCC(C)CC(CCCCCC)NCCOC(=O)c1ccc([N+](=O)[O-])cc1 (configuration not stated),inactive: 12.5 µM
15,CC1CN=C(Nc2cccc(F)c2)S1 (configuration not stated),inactive: > 100 µM
16,c1ccc(C(c2cccc3c2ccc2ccccc23)C(c2ccccc2)c2cccc3c2ccc2ccccc23)cc1 (configuration not stated),inactive: > 100 µM
17,O=c1[nH]c2cc3cccnc3c(Cl)c2nc1C(F)(F)F,inactive: 38 µM
18,C[C@H]1CC[C@@]2(NC1)O[C@H]1C[C@H]3[C@@H]4CC[C@H]5C[C@@H](O)CC[C@]5(C)[C@H]4CC[C@]3(C)[C@H]1[C@@H]2C,inactive: 75.2 µM
19,Cc1ccc(-n2cnc3c(N/N=C4\SCC(=O)N4c4ccccc4)ncnc32)cc1,inactive: 12.8 µM
20,O=C(NC1C(O)C(O)C(CO)OC1n1cc(F)c(=O)[nH]c1=O)OCc1ccccc1 (configuration not stated),inactive: > 100 µM
21,CC(CO)CCNc1ncnc2c1ncn2CCC(=O)OC(C)(C)C (configuration not stated),inactive: > 100 µM
22,O=C(c1ccco1)c1ccccc1C(=O)c1ccco1,inactive: > 100 µM
23,O=C1/C(=C/c2cccnc2)C(n2cccc2)c2c(Br)sc(Br)c21 (configuration not stated),inactive: 1.97 µM

row,SMILES,GI50
1,COc1ccc(NC(C)=O)c(C(=O)CCNC(C)=O)c1,inactive: > 100 µM
2,Cc1ccc(S(=O)(=O)N(CCN)c2cc3c4c(c2)Oc2cccc5c2C4c2c(cccc2O3)O5)cc1,inactive: 31.9 µM
3,COc1cc2c(c3c1C=CCO3)C(=O)c1ccccc1C2=O,inactive: 53.1 µM
4,O=C(O)CCC(NC(=O)c1ccc(Oc2nc3ccccc3nc2C(=O)O)cc1)C(=O)O (configuration not stated),inactive: > 100 µM
5,O=C(c1ccccc1)c1nnn(Cc2cccc(Cl)c2)c1C(=O)c1ccccc1,inactive: > 100 µM
6,CCOC(=O)C1=C(O)C2C3CC4C2C(O)=C(C(=O)OCC)C2C1C3C42 (configuration not stated),inactive: > 100 µM
7,COc1cc(S(=O)(=O)Nc2ccc(-c3csc(N4C(=O)CSC4c4cccc(Oc5ccccc5)c4)n3)cc2)ccc1Cl (configuration not stated),inactive: 54.3 µM
8,CC(=O)/C=C1\CC(=O)N(C)c2ccccc2N1,inactive: > 100 µM
9,O=C(c1ccccc1)C1C[C@H]2CO[C@H](c3ccccc3)N2C1=O (some centres not stated),inactive: > 100 µM
10,Cc1ccc(NCC2CC/C(=C\c3ccc(Cl)cc3)C2=O)cc1 (configuration not stated),inactive: 63.1 µM
11,Cc1ccc([Se][Se]c2ccc(C)cc2)cc1,inactive: 54.8 µM
12,CCOC(=O)C1(C/C=C/CCl)CCCC1=O (configuration not stated),inactive: 21.8 µM
13,O=C1NC(=O)C(c2c[nH]c3ccccc23)=C1c1cn(C(c2ccccc2)(c2ccccc2)c2ccccc2)cn1,inactive: 12.1 µM
14,O=C(CCCNc1nc(-c2ccccc2)cs1)c1cccs1,inactive: > 100 µM
15,COC1OC2COC(C)(C)OC2C2OC(C)(C)OC12 (configuration not stated),inactive: 36 µM
16,CCOC(=O)C(NC(=O)N(C1=NCC(C)S1)C1CCCCC1)(OC)C(F)(F)F (configuration not stated),inactive: 37.4 µM
17,O/N=C1/CCCC/C1=C\c1ccc(Cl)c(Cl)c1,inactive: 27.5 µM
18,CC1(C)[C@H](C(=O)O)N2C(=O)[C@@H](NS(=O)(=O)c3ccc([N+](=O)[O-])cc3)[C@H]2S1(=O)=O,inactive: > 100 µM
19,Nc1ccnc2c1ncn2[C@H]1C[C@H](O)[C@@H](CO)O1,inactive: > 100 µM
20,CC(CCC(=O)O)[C@H]1CCC2[C@H]3C(CC(=O)[C@@]21C)[C@@]1(C)CCC(O)C[C@H]1C[C@@H]3O (some centres not stated),inactive: > 100 µM
21,CC(CC(=O)O)(CC(=O)O)c1ccccc1,inactive: > 100 µM
